# In the supplement of paper PMC3334620:
# In all, about 33,000 sequences were measured (“E-score (-0.5 to 0.5)”: median about -0.012, highest 2% from about 0.29 on). This is one part of the list.
# Biological target: T1, Ybr033w (UniProt P38073)
# T1 sequence: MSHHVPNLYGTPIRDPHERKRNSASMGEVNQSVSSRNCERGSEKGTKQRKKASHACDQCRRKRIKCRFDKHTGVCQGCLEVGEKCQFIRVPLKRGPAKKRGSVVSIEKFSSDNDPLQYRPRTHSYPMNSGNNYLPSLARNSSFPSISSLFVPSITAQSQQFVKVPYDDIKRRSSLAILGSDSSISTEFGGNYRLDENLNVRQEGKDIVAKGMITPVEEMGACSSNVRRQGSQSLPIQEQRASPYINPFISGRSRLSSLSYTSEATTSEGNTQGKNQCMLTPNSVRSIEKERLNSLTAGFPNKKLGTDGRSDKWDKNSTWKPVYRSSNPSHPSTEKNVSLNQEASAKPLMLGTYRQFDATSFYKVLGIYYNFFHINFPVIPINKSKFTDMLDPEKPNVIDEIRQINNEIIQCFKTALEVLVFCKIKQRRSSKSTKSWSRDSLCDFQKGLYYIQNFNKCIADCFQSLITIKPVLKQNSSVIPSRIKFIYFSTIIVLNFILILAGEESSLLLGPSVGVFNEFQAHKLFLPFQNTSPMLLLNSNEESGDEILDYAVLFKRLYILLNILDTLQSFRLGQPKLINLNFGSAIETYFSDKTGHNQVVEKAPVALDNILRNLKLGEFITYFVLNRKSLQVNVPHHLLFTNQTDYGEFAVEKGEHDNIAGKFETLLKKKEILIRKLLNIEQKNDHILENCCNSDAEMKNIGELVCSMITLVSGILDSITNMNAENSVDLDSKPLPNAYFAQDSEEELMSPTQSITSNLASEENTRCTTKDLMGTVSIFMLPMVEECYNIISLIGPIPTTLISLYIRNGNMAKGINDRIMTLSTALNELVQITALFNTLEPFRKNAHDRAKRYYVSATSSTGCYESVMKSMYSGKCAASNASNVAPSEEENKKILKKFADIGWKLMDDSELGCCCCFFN
# Experiment: PBM E-score (8-mer binding enrichment) (E-score (-0.5 to 0.5)); higher = stronger / more preferred TF binding; most listed sequences are background and not binding sites
# Settings: protein concentration: 200 nM; construct: GST-full length
# Method in brief: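 Universal all-10-mer Agilent arrays, double-stranded by primer extension on fresh or once-stripped slides, were probed with about 100-200 nM GST-tagged yeast transcription factors made by PURExpress. Fluorescent anti-GST detected bound protein, and masliner normalised the scans. E-scores from the Universal PBM Analysis Suite were given to each ungapped eight-base word pooled with its reverse complement.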
row,Sequence,PBM E-score
1,AGTTATAA,0.151
2,ATGTCGTG,-0.161
3,CGTACAAG,0.026
4,CGCATGTA,-0.12
5,CTAATTCA,0.135
6,ACTGTTAC,0.0169
7,AAGCTCGA,0.138
8,ATGTCTGA,0.0588
9,CAGTGAAA,0.126
10,AACGAACA,0.196
11,GGCGCCGA,-0.104
12,AGCCTGCC,-0.168
13,TCCAAAAA,0.115
14,CAACGTCA,0.108
15,GAGACCGA,-0.0812
16,GTAATGGA,0.163
17,GACCATGC,-0.154
18,AAGACTTC,-0.187
19,CCGTCAGG,0.0345
20,ACTCCTGG,-0.192
21,CCGATACG,-0.254
22,CCCCTAAG,-0.157
23,GAATTGGA,0.03
24,CGTTGCCC,-0.31
25,CATGAACC,-0.0371

row,Sequence,PBM E-score
1,CACGTAGC,-0.273
2,TTAATAAA,0.381
3,TGACTCCA,-0.123
4,AACCGCGT,0.0693
5,CTAGGAGA,-0.0781
6,CACGTTCG,-0.0424
7,ATACAAAC,0.306
8,ATAGGCCG,-0.266
9,CACAGGTC,-0.199
10,GTACTTAA,0.118
11,CGCGTGGA,-0.226
12,GTTAGGGA,-0.172
13,CGTGGCAG,-0.0958
14,ATGACGAC,0.00677
15,GTCAACCA,0.0737
16,ATCATCCC,0.166
17,CGTTTATC,0.172
18,AACCAACA,0.165
19,CGTCATTA,0.047
20,ACTAAACA,0.177
21,ATAGTGGG,-0.0343
22,ACCACGCG,-0.164
23,AGTGGTGC,-0.0473
24,ACCCCCTG,-0.454
25,AGGTGAGC,-0.172

row,Sequence,PBM E-score
1,GCCTGACC,-0.211
2,AGTGACCG,-0.192
3,ACGTCTAG,0.0964
4,CCTGGCTC,-0.174
5,GCCTAGGC,-0.287
6,ACTCACGG,-0.0114
7,CCGACGAA,0.119
8,CAGTAAGA,0.0564
9,ACCGTGGA,-0.224
10,ATGTTAAC,0.169
11,AAGCCATG,-0.247
12,ATCTACTA,0.324
13,AGTCTCAG,-0.149
14,ACTGTTTA,0.187
15,GACACCGA,-0.182
16,AGCAGCTA,0.163
17,AACCCACC,0.021
18,CACTCAGG,-0.108
19,AACATAAG,0.255
20,GATACTTA,0.135
21,CCAATCGA,-0.1
22,TGGCAGAA,0.0785
23,CCCTGTTC,-0.158
24,CGAATCTA,0.0941
25,GATCCCCA,-0.167

row,Sequence,PBM E-score
1,CAACTGGG,-0.228
2,GAGCACAC,-0.217
3,ATCTCGCG,0.225
4,CTTCCAAG,0.0645
5,GTTGCATA,0.0648
6,CAGTTAAC,-0.0541
7,AGGCATGG,-0.0824
8,ACCCATAA,-0.0263
9,GCTGCCCC,-0.367
10,AGATCGAG,0.0958
11,GCCCCCTA,-0.309
12,AGCATGCC,-0.318
13,GGAAGTCA,0.0558
14,AGTGCCTG,0.0844
15,CACGCTAA,0.0904
16,CGCCCGCA,-0.0804
17,AATGCTTA,0.0895
18,AAACGAGA,0.0255
19,GGGGTCAA,-0.0578
20,ACTTTCTC,0.0654
21,GCCCGGTA,-0.21
22,GGTTTCAA,0.0869
23,GTCGATCA,0.103
24,AATCTTGA,0.0862
25,ATTCGTTA,0.166

row,Sequence,PBM E-score
1,CGTAAATA,0.154
2,ATTGAGCG,0.0411
3,CGGACTGC,-0.101
4,AATGCATG,0.0293
5,ACACCGTC,-0.0477
6,AGCGCCCG,-0.167
7,CTTGGGAA,0.142
8,CACGGCCC,-0.238
9,CTAGTAGA,0.101
10,AATAGAAC,0.243
11,GCGTTGAA,-0.0177
12,CCGCGCCA,-0.118
13,CAGTTGAC,0.0609
14,GATGTCCC,-0.0788
15,ATTTTCGA,0.121
16,GTGGTCTA,-0.0327
17,GCCTTAGC,-0.0859
18,CCTAACCC,-0.338
19,GTCAGGAC,-0.203
20,AACTAGAA,0.0732
21,ACGATGCT,-0.133
22,CCCATTCC,-0.3
23,ATATGGAC,0.104
24,CTTCAACC,0.00158
25,GCAGGCCC,-0.319

row,Sequence,PBM E-score
1,AAGATTAG,0.219
2,AAACTCCC,-0.0496
3,CCTAAAGC,-0.0686
4,AATCGCTA,-0.0432
5,GCCCTGAA,0.0531
6,TGAACTCA,-0.0954
7,GGGAGTAC,-0.221
8,ATCCATAC,0.17
9,ACCCAACG,-0.034
10,GGGTAGAA,-0.0125
11,ATGAAATA,0.112
12,CTTTGTGC,-0.00737
13,TCCACTCA,0.116
14,ATCGAGTA,0.0423
15,AGTTATGA,0.0811
16,CCGCATTA,0.0751
17,ATACCCTC,0.107
18,AAAATAAA,0.319
19,GTTGAGGA,-0.0398
20,GTGTGCGA,-0.0715
21,CGGTCGAC,-0.162
22,CGGTTGTA,-0.189
23,TGATGCCA,0.0319
24,ATTCAAAA,0.266
25,CGGCGAAC,-0.147

row,Sequence,PBM E-score
1,AGAGTGAT,0.0159
2,GTTAATTA,0.266
3,CTTTAACA,0.222
4,ATGTCAGC,-0.0298
5,ACGGTTCT,-0.118
6,AGCCGGGA,0.00118
7,CTACTTTC,0.0597
8,ATGTTCTC,0.0345
9,AACGGACG,-0.0518
10,CGCGGCGA,-0.0533
11,TCTGAACA,0.0293
12,CTATTAGA,-0.101
13,ATGGTCTA,0.00273
14,CCAATAGG,-0.069
15,GAAACGTC,-0.0259
16,CTCGCATA,0.0348
17,ACTAGTCA,0.0224
18,AAGGGTTG,-0.0377
19,AAGTTACC,0.135
20,CTACGAAC,0.0127
21,CCGGCCCA,-0.263
22,CCCGATAC,-0.151
